Data: article PMC4336329 (PLoS ONE, 2015)
Among all 310,000 compounds or so, about 14,000 (4.5%) showed an effect of 50% or more. Effects have a minus sign here. This is one part of the list.

Each compound was assayed against human ether-à-go-go-related gene (hERG) potassium channel (human, UniProt Q12809) (assay: primary screen, population patch clamp on CHO cells stably expressing hERG).
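Note: peak tail current of the secondary pulse compared with the same well before compound.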

human ether-à-go-go-related gene (hERG) potassium channel, sequence (Q12809 whole entry, looked up): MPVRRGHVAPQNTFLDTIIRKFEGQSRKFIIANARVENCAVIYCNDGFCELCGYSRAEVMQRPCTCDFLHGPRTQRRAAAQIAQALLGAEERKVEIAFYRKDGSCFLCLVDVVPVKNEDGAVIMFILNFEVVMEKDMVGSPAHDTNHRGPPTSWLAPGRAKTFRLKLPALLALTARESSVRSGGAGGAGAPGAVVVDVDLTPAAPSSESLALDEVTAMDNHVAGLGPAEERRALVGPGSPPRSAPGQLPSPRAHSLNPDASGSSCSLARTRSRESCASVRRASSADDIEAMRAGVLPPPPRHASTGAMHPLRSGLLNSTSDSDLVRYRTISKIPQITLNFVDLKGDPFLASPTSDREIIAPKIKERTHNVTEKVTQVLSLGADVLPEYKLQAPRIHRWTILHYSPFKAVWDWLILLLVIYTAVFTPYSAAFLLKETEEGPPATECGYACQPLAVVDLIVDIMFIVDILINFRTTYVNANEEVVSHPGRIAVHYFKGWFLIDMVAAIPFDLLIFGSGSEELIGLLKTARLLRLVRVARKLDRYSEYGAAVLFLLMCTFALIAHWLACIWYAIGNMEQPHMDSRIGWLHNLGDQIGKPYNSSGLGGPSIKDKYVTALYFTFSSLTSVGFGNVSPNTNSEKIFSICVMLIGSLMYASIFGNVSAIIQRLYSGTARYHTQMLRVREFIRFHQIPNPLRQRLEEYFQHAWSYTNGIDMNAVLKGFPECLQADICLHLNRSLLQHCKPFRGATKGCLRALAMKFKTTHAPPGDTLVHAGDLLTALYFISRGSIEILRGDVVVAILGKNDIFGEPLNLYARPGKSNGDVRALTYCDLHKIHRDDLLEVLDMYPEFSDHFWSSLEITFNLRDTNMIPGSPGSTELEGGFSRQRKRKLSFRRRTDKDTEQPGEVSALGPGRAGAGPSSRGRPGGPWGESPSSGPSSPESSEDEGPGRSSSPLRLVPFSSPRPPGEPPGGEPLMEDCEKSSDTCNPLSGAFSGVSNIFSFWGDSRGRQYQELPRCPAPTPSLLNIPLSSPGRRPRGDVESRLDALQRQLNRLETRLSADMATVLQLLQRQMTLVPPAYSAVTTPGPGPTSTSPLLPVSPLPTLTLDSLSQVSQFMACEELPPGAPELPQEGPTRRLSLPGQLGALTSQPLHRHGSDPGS

In order of rising “hERG current change (%, negative = inhibition) at 10uM” value:
1. O=S(=O)(c1ccc(Cl)cc1)N1CCC(n2cnc3cc(C(F)(F)F)ccc32)CC1  -78.4%
2. O=[N+]([O-])c1ccc(CSc2nc3ccccc3[nH]2)cc1  -54.2%
3. Cc1cc(Cl)cc(Cl)c1OCCOCCN(C)C.O=C(O)C(=O)O  -48.9%
4. COCCN(Cc1cn(C)nc1-c1ccc(Oc2ccccc2)cc1)C(C)C  -43.3%
5. Cc1c2cnn(CC(=O)NCCCN3CC(C)CC(C)C3)c(=O)c2c(C)n1Cc1ccccc1Cl (centres unmarked)  -36.7%
6. Cc1ccc(CNC(=O)C2CCCN(c3nn4c(=O)cc(C)nc4s3)C2)cc1 (centres unmarked)  -31.1%
7. CCOC(=O)C1CCN(CC(O)COCc2ccccc2)CC1.O=C(O)C(=O)O (centres unmarked)  -31.1%
8. Cc1ccnc(NS(=O)(=O)c2ccc(NC(=O)c3ccc(Br)o3)cc2)n1  -29.5%
9. COc1cc(C(=O)c2ccccc2)c(OC)cc1C(=O)Nc1ccc(O)cc1  -27.4%
10. COc1ccc2nc3oc(C(=O)N4CCC5(CC4)OCCO5)cc3cc2c1  -16.5%
11. Cc1ccc(C(=O)NCCSC(C)(C)C)cc1[N+](=O)[O-]  -15.8%
12. COc1ccccc1N1CCN(Cc2ccc(F)cc2)CC1  -14.7%
13. CCCCn1c(O)c(C(CC)=NCc2cc(OC)cc(OC)c2)c(=O)[nH]c1=O  -13.8%
14. CCOC(=O)N1CCN(S(=O)(=O)c2ccc(OCC)c(C)c2)CC1  -13.5%
15. CC(=O)c1cccc(NC(=O)C(=O)c2cn(CC(=O)N3CCCCC3)c3ccccc23)c1  -8.35%
16. CCOC(=O)/C(C#N)=C/c1ccc(OC(=O)c2ccccn2)cc1  -5.99%
17. CC(C)Cn1cc(C(=O)N2CCC3(CC2)OCCO3)c2c3ccccc3n(C)c2c1=O  -5.7%
18. Cc1c(C(=O)NCC(C)C)sc2nc(-c3ccc(F)cc3)cn12  -5.46%
19. C/C(=N/NC(=O)CNC(=O)c1ccccn1)c1cccc([N+](=O)[O-])c1  -4.71%
20. S=C1NC(C23CC4CC(CC(C4)C2)C3)=CC(c2ccc3c(c2)OCO3)N1 (centres unmarked)  -3.35%
21. CCc1noc(C)c1C(=O)Nc1nc(-c2cc(OC)ccc2OC)cs1  -3.31%
22. O=C(NC(=S)Nc1cccnc1)c1cccs1  -3.08%
23. CC(C)(C)C(=O)CC1(O)C(=O)N(Cc2ccc(Cl)cc2)c2ccccc21 (centres unmarked)  -2.51%
24. CC(C)CN(C(=O)COC(=O)CNC(=O)c1ccccc1F)c1c(N)n(Cc2ccccc2)c(=O)[nH]c1=O  -2.12%
25. C=CCn1c2ccccc2n2nc(C)c(=O)nc12  -0.579%
26. O=S(=O)(NCC(Nc1ccccc1)c1ccccc1)c1ccc(Cl)cc1 (centres unmarked)  -0.486%
27. O=C(N/N=C/c1ccco1)C1CC1  -0.246%
28. CCOC1=NS(=O)(=O)c2ccccc21  1.66%
29. CC(C)CNS(=O)(=O)c1ccc(CCC(=O)Nc2cc(Cl)ccc2Oc2ccccc2)cc1  2.49%
30. Nc1nc(NCc2ccccc2)nc(-c2ccccc2)n1  2.96%
31. COc1cc(C(=O)NC2CCN(CC(=O)NC3CCCCC3C)CC2)cc(OC)c1OC (centres unmarked)  4.58%
32. CN(C)S(=O)(=O)c1cccc(NC(=O)COC(=O)CCOc2ccccc2)c1  5.81%
33. COc1ccccc1N1CCN(C(=O)CSc2nc(N)cc(=O)[nH]2)CC1  6.2%
34. Cl.O[C@@H](c1cc(C(F)(F)F)nc2c(C(F)(F)F)cccc12)[C@H]1CCCCN1  6.31%
35. CC(C(=O)Nc1ccccc1C(=O)N1CCOCC1)N(c1ccc(Cl)cc1)S(C)(=O)=O (centres unmarked)  6.41%
36. CC1CCCC(C)N1C(=O)CSc1nnc(COc2cccc3cccnc23)o1 (centres unmarked)  6.67%
37. C/C(=N\NC(N)=O)C1(C)CCCCC1  8%
38. Cc1cccc(NC(=O)C2CC(=O)n3ncnc3N2)c1 (centres unmarked)  8.05%
39. COc1cccc(CN2CCNC(=O)C2CC(=O)NCCn2ccc3ccccc32)c1OC (centres unmarked)  8.66%
40. Cc1ccc(S(=O)(=O)Nc2cc(-c3ccc(Cl)cc3)nn2C)cc1  9.97%
41. CCC(=O)Nc1nc2ccccc2n1Cc1ccccc1C  10.1%
42. COC(=O)[C@H](CC(C)C)NC(=O)N1CCCCC1  11%
43. O=C(CSc1nncn1-c1ccccc1)NCc1cccs1  11.1%
44. O=C(NCC(=O)N(c1ccccc1)C(C(=O)NCC1CCCO1)c1ccccc1)c1ccco1 (centres unmarked)  12.2%
45. CCC1(CC)C(=O)NC(=O)NC1=Nc1ccccc1  12.7%
46. CN1CCC(=NNC(=O)C(=O)NC2CCCC2)CC1  12.7%
47. CCC(=O)Nc1c2c(nn1-c1ccc(OC)cc1)CSC2  14.7%
48. Cc1ccc(C(=O)N2CCC3(CC2)Oc2ccc(Cl)cc2C(=O)C32CC(c3ccc(Cl)cc3)=NO2)s1 (centres unmarked)  16.6%
49. O=C(O)c1cccc(NC(=O)c2ccc(COc3ccc(Cl)cc3)cc2)c1  16.7%
50. CC(=O)Nc1ccc(NC(=O)C2CCC(CNS(=O)(=O)c3cccc4nsnc34)CC2)cc1 (centres unmarked)  17.3%
51. COc1ccc(C2=CC3=C(Br)C(=O)C(C)(OC(=O)c4ccco4)C(=O)C3=CO2)cc1 (centres unmarked)  17.7%
52. Cc1ccc(-c2nc(C(=O)O)cs2)cc1  17.8%
53. CCc1cc(-c2onc(C)c2-c2cscn2)c(O)cc1OC  18.1%
54. COc1ccccc1OCc1nc(C#N)c(N2CCCC2)o1  20.1%
55. Cc1ccc(S(=O)(=O)N(C)C)cc1NC(=S)NCCc1ccccn1  24.2%
56. CN1CCN(C(=O)CCNC(=O)Cn2ccc3ccccc3c2=O)CC1  25.6%
